From the supplement of paper PMC9446081
About 220 (0.56%) of roughly 39,000 compounds showed activity. The list shows a part of the results.

The compounds below were run on Escherichia coli K-12 BW25113 (assay: relative growth (OD600 normalised to plate interquartile mean) (fraction); higher = less growth inhibition, active = 0.2 or less). Settings: 50 µM; LB; incubation time: overnight (16-24 h).
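Further: static incubation at 37 °C against the wild-type strain, values averaged over two biological replicates.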

Compound | relative growth
C[C@H](CO)N1C[C@H](C)[C@@H](CN(C)C(=O)Nc2ccc3c(c2)OCO3)OCCCC[C@H](C)Oc2ccc(NC(=O)C3CCCCC3)cc2C1=O | inactive: 1.01
C[C@H](CO)N1C[C@H](C)[C@H](CN(C)C(=O)Nc2ccc(C(F)(F)F)cc2)OCCCC[C@H](C)Oc2ccc(NC(=O)Nc3ccc4c(c3)OCO4)cc2C1=O | inactive: 1
Cc1c(C(=O)O)c(O)cc2c1C(=O)c1c(O)c(C3OC(CO)C(O)C(O)C3O)c(O)c(O)c1C2=O (stereo unspecified) | inactive: 1.1
C[C@H](CO)N1C[C@H](C)[C@H](CN(C)C(=O)Nc2ccc(C(F)(F)F)cc2)Oc2ccc(NC(=O)CCC(F)(F)F)cc2C1=O | inactive: 0.985
COc1ccc(NC(=O)Nc2ccc3c(c2)C(=O)N([C@@H](C)CO)C[C@@H](C)[C@@H](CN(C)C(=O)C2CCCCC2)OCCCC[C@@H](C)O3)cc1 | inactive: 0.993
C[C@H]1CN([C@@H](C)CO)C(=O)Cc2cc(NC(=O)Cc3ccccc3)ccc2O[C@H]1CN(C)S(C)(=O)=O | inactive: 0.999
C[C@H]1CCCCO[C@H](CN(C)Cc2ccccc2)[C@@H](C)CN([C@@H](C)CO)C(=O)c2cc(NC(=O)NC3CCCCC3)ccc2O1 | inactive: 1.05
C[C@@H]1CCCCO[C@H](CN(C)C(=O)NC2CCCCC2)[C@H](C)CN([C@H](C)CO)C(=O)c2cc(NC(=O)Cc3ccccc3)ccc2O1 | inactive: 0.986
COc1ccc(NC(=O)Nc2cccc3c2O[C@H](CN(C)C(=O)Nc2ccc(C(F)(F)F)cc2)[C@@H](C)CN([C@@H](C)CO)C3=O)cc1 | inactive: 0.748
Cc1ccc(S(=O)(=O)Nc2ccc3c(c2)C(=O)N([C@H](C)CO)C[C@@H](C)[C@H](CN(C)Cc2ccc(C(F)(F)F)cc2)OCCCC[C@H](C)O3)cc1 | inactive: 0.988
Cc1noc(C)c1NC(=O)N(C)C[C@@H]1Oc2ccc(NC(=O)Nc3cccc4ccccc34)cc2CC(=O)N([C@@H](C)CO)C[C@H]1C | inactive: 0.967
O=C(C[C@@H]1CC[C@H]2[C@@H](COC[C@H](O)CN2S(=O)(=O)c2ccc(Cl)cc2)O1)NCC1CCCCC1 | inactive: 0.88
C[C@H](CO)N1C[C@H](C)[C@@H](CN(C)S(=O)(=O)c2cn(C)cn2)Oc2ccc(NS(=O)(=O)c3cccs3)cc2CC1=O | inactive: 1.01
COc1ccc(NC(=O)N(C)C[C@H]2Oc3ccc(NC(=O)CCCCCC(=O)Nc4ccccc4N)cc3C(=O)N([C@H](C)CO)C[C@H]2C)cc1 | inactive: 0.968
C[C@H](CO)N1C[C@H](C)[C@H](CN(C)Cc2ccccc2)Oc2ccc(NS(=O)(=O)c3cn(C)cn3)cc2C1=O | inactive: 0.962
C[C@H]1CN([C@@H](C)CO)C(=O)c2ccccc2-c2ccccc2CO[C@@H]1CN(C)Cc1cccc(C(F)(F)F)c1 | inactive: 1.06
CC(C)NC(=O)N(C)C[C@H]1OCc2cnnn2CCCC(=O)N([C@@H](C)CO)C[C@@H]1C | inactive: 1
C[C@@H]1CN([C@H](C)CO)C(=O)c2cc(NC(=O)c3ccccc3)ccc2O[C@@H](C)CCCCO[C@@H]1CN(C)Cc1ccncc1 | inactive: 1.06

Compound | relative growth
C[C@@H]1CN([C@@H](C)CO)C(=O)c2cc(NC(=O)Nc3ccc(F)cc3)ccc2O[C@@H](C)CCCCO[C@@H]1CN(C)Cc1ccccc1 | inactive: 1.07
C[C@@H]1CCCCO[C@H](CN(C)C(=O)Nc2ccc(F)cc2)[C@@H](C)CN([C@@H](C)CO)C(=O)c2cc(NC(=O)Cc3ccccc3)ccc2O1 | inactive: 0.99
COc1ccc(S(=O)(=O)N(C)C[C@H]2Oc3c(NC(=O)Cn4cnnn4)cccc3C(=O)N([C@H](C)CO)C[C@@H]2C)cc1 | inactive: 1.02
C=CC[C@H](CC(=O)N(CCO)Cc1ccccc1)C(=O)N[C@@H](COC(=O)[C@@H](CC=C)Cc1ccc(F)cc1)Cc1c[nH]c2ccccc12 | inactive: 1.01
CC(C)C#Cc1ccc2c(c1)O[C@@H](CN(C)C(=O)Cc1ccccn1)[C@H](C)CN([C@H](C)CO)S2(=O)=O | inactive: 0.98
Cc1noc(C)c1NC(=O)Nc1ccc2c(c1)C(=O)N([C@@H](C)CO)C[C@@H](C)[C@H](CN(C)C(=O)NC(C)C)O2 | inactive: 0.979
CC(C)NC(=O)Nc1ccc2c(c1)C(=O)N([C@@H](C)CO)C[C@H](C)[C@H](CN(C)C(=O)NC1CCCCC1)O2 | inactive: 0.981
O=C(C1=C[C@H](c2ccc(C(F)(F)F)cc2)C[C@H](OCc2ccc(CO)cc2)O1)N1CCN(Cc2ccccc2)CC1 | inactive: 1
C[C@H]1CCCCO[C@H](CN(C)CC2CCCCC2)[C@@H](C)CN([C@@H](C)CO)C(=O)c2cc(NC(=O)Nc3cccc4ccccc34)ccc2O1 | inactive: 0.984
C[C@@H]1CN([C@H](C)CO)C(=O)c2cc(NC(=O)Nc3cccc4ccccc34)ccc2O[C@@H]1CN(C)Cc1ccncc1 | inactive: 0.986
CCOC(=O)c1c[nH]cnc1=O | inactive: 0.973
C[C@H](CO)N1C[C@H](C)[C@H](CN(C)C(=O)Nc2ccccc2C(F)(F)F)OCc2cn(nn2)CCCC1=O | inactive: 0.989
C[C@@H]1CN([C@H](C)CO)C(=O)c2cc(NC(=O)Nc3ccc4c(c3)OCO4)ccc2O[C@@H](C)CCCCO[C@H]1CN(C)C(=O)Cc1ccccc1 | inactive: 1.02
COc1ccc2c(c1)[n+]([O-])c1c([n+]2[O-])CCC1 | inactive: 1
COCC(=O)Nc1ccc2c(c1)[C@H]1C[C@H](CC(=O)N3CCOCC3)O[C@@H](CO)[C@H]1O2 | inactive: 0.985
C[C@H]1CN([C@@H](C)CO)C(=O)Cc2cc(NC(=O)Nc3ccc(F)cc3)ccc2O[C@@H]1CN(C)CC1CCCCC1 | inactive: 0.984
COCC#Cc1ccc2c(c1)O[C@H](CN(C)C(=O)COC)[C@H](C)CN([C@H](C)CO)S2(=O)=O | inactive: 1.01
C[C@@H]1CCCCO[C@H](CN(C)C(=O)Nc2ccc(F)cc2)[C@H](C)CN([C@H](C)CO)C(=O)c2cc(NC(=O)C3CCCCC3)ccc2O1 | inactive: 1.01
